Laboratory results from the RNAGym collection of RNA variant scans (doi:10.1093/nar/gkz1192).
The source gives no read counts; variants with many changes may rest on few reads.

B1: CPEB3 Ribozyme (parent)
chain: UAACAGGGGGCCACAGCAGAAGCGUUCACGUCGCAGCCCCUGUCAGAUUCUGGUGAAUCUGCGAAUUCUGCUGUAUAUCUC

Variants of: B1
Test: self-cleavage, relative activity (ratio to wild type); higher = more cleavage; in vitro, sequencing
Procedure, shortened: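 For each CPEB3 ribozyme variant, relative activity is its cleaved/total read fraction divided by the unmutated ribozyme's. Barcoded error-prone PCR libraries were transcribed by T7 RNA polymerase (5 hours, 37°C) and held in DNase I for 15 min before an EDTA stop, with cleavage occurring throughout. Template-switching reverse transcription and Illumina sequencing were used to read the RNAs. A 5-read minimum applied, and results are the mean of three batches.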

Variant	self-cleavage
C37U U74C U80C	0.89
C37A U43C U67C	0.07
C37G U67C U80C	0.11
C37G U54A A65G U69A U72C C81G	0.18
C40U A45G A56U U72G	0.11
C40U U67C A77G	0.11
C40U A56G U58A U60C	0.19
C38U A56G U74C U76A	0.47
C37U C59A U67A	0.09
C39U G63U A64G U80A	0.35
C40A C50A G63A	0.09
C37U U41A U43A A47U A56G U67G	0.03
C38A A56G U60G	0.39
C38A A64U C79A	0.06
C40U U54C A56G	0.38
C39U U41A A45G U74C U76A	0.37
G36U G46U A47U	0.13
C37A U49C A64U	0.06
C40U U51C A64G	0.5
C38A U48C U78C	0.14
C37U U58C U74C	0.47
C39A C71G A75G	0.24
G36U C44G G52A A65G U72C	0.1
C40U U43C G46C	0.13

Variant	self-cleavage
C39A G73C U80C	0.64
C39U A45C U67C	0.11
C38A A64U U78C	0.06
C37U C50A U80A	0.27
C40U A47U U60A	0.38
C39A G46U A77G	0.14
G36U U41A U43G A47G	0.2
C40U A45U U49C U67A U69A	0.09
C38U U41C U49A	0.22
C38U U58A U78C	0.07
C40U C59U U76C	0.78
C40G U41G A57G	0.35
C40U A47G A56G C62U A64U	0.08
C37U A45G G70A	0.26
C39A C40U U41A U43C A45U U60C C71U	0.06
C39U U74C U78C	1.08
C39A U41C U54C U76C	0.22
C39A U60A U74C	0.43
G36C A57G U69G U72C	0.15
C38U U41C A65G U76A	0.28
C39U A56G A64G U72C	0.26
C37A A45U U49C A56C U60C	0.09
C40U U51G A57U	0.52
C40U A57G A64U	0.2

Variant	self-cleavage
C38U U41C U74C U80C	0.59
C37U A56G U69C	0.19
G36U A45U U76A	0.15
G36U U51G A56U A57U	0.08
C39U U41G A56G U69C U76C	0.13
C40U U43C A65U U72C	0.08
C38U U78C U80G	1.22
C40U U54A U78C	0.87
U41A A45G A47G	0.63
C40G U41C A56G	0.21
C38A U41A U69A A75U	0.06
C39G G55A A57C	0.1
C40U A47U A75G U80C	0.84
C39A U49C U54C A64U	0.14
C38U A65G U74C	0.36
C40A U43C A45U U51A	0.16
C39U U43C U51A U54C A56G U76A	0.04
C39G U41A U43C A45U A47U U67A	0.08
C39U G46U U78C	0.26
C39A G55A A64G U72C U78C U80A	0.04
C39A A45G U78C	0.25
C37A A47G U51A A57G	0.33
C38G U51A A56G	0.11
C40U U58G U80C	0.22

Variant	self-cleavage
C39U U54G U72C	0.63
C39G C40U G52C U69A	0.19
C37U U69C U78G	0.58
C40A A47C U60G U69G	0.2
C40G U41A A45U A47G U54A	0.06
C38U U60C U69G	0.3
C39A C50U A57G U58A U78C	0.16
C39U U41C U54A U72G	1.01
C37G U54C C68A	0.1
C38A A56G U66C	0.09
C38U U41A A64G U78C	0.07
C40A A45U U69A U72C	0.18
C38U U48G U51C A57G	0.07
C39U U51A U66C	0.29
C39A G42A A64G	0.08
C38U C40A A45G U66C U69C	0.08
C37G U41A U43A U51A	0.46
C38U A45U A56G U80C	0.14
C38U A45G U67C A75G U80C C81U	0.04
C40A A56G A75U	0.05
G36C A45U G61C U78C	0.03
C38U C44A U78C	0.26
C39A U41C U43A U49C	0.22
C38U C40U A64G U67C	0.11

Variant	self-cleavage
G36U A64G C68U U78C	0.05
C40U G55U U74C U80C	0.58
C40U A45U U49A	0.15
C40U A45G U78C	0.45
C37U C40A G42U	0.23
C39A U49C U60C U78C	0.14
C37A U41C U51A U54C	0.24
C38A U51C A64G	0.3
C39G U43A C68G	0.14
G36U U69A A77G	0.14
C38G G55U U80A	0.08
C37U U72C U74A	1.18
C39U U51G A65G C71G U78A	0.13
C38A A45G A56G	0.1
C40U U51C A65U U78A	0.23
C38A U41C U78C	0.16
C37A A45G U49C	0.06
C40U U41C U49A	0.5
C40A G55A A57U	0.08
G36U U43A U49A U69A	0.08
C39A G63U A64G U67A	0.08
C37U U41G U49C U60C U80C	0.15
C38A U43C U54C A56G A57U	0.09
C39U U49C U58C	0.18

Variant	self-cleavage
C39U A45G U48C U49A U78C	0.09
C40A A64G U80C	0.18
C39U U48C A75G	0.42
C40A A45U U49A	0.21
C40A A56U U67C G70C	0.12
C40U A56U U58C U72A	0.21
C39A U41C A77U U78C	0.13
C38U U66C U78G	0.06
C38U A57G U58C U67C U69A	0.04
C40A U41A U54C U72C	0.26
C40A C50A U51A G63U	0.16
C40U U51A G61C A64G	0.17
C40A G55A A56G	0.1
C40U U69A U74C	0.4
C38A U66C U69C U72A	0.09
C37U U49C A64G U69C	0.11
C40U C50G A56G C68A	0
C40G A64G A75U	0.31
C40A U49C A77G	0.12
C40A U43A A56U	0.12
C40U U54A U69C	0.54
C40U G55A A64U	0.12
C38A U41C A64G C68G	0.12
C38A C50A G55A U67C U80C	0.04

Variant	self-cleavage
U41A A45G A65G A75G	0.1
G36C U48C G61U U80C	0.19
C38G U49A A57G	0.15
C39A U51A A57C	0.24
U41A A45G A57U U76C	0.12
C39A U43C A45G	0.28
C37A A64G U76G	0.15
C39A A45G U60A	0.12
C39G U54C U60C C62U U74C A75G	0.06
C37G A57G U60A	0.15
C37U U54A A56G	0.24
C38U U67C A75G	0.19
C40U U60C U69C U74C A75G	0.35
C37U U58C A65G U78C	0.04
C38U A45U G55A U58C C59G	0.14
C37U U43A U51A A64G	0.33
C40U U51G U60C U69C U74A	0.09
C40U U41A U78C	0.1
C38U A45G U54C	0.67
C39U U51A U58C	0.54
C40G U60A A64U U66C U74C	0.14
G36U U49C A64C U72A U80A	0.09
C37U A47G U72A	0.5
